The list shows a part of the results. Rule as the data show it: active = 3.2 or more and inactive = the rest. The signal is at background level for most entries.
Each binder was assayed against SHP2 C-SH2 domain E139D (assay: enrichment score (SH2-bound / input frequency) (ratio); bacterial display of known human phosphotyrosine sites (pTyr-Var adds point mutants) read by sequencing; higher = stronger binding; tyrosines were phosphorylated by kinases first). Details: peptide library: pTyr-Var.
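Also: displayed peptides selected on beads carrying the immobilized SH2 domain, with library peptides lacking any tyrosine serving as negative controls.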

Enrichment score, inactive:
RTEAQYRFIYM [PTPN11_Y511_Q506R] 0.592
EPVSDYINASI [PTPN11_Y304_N308S] 0.624
ECKLRYSRKEG [PTPN11_Y263_L262R] 0.278
QTEAEYRFIFM [PTPN11_Y511_Q510E_YF] 0.498
GFFDLYGGEKF [PTPN11_Y66_D61G_YF] 1.3
QNTVDYFDLFG [PTPN11_Y62_G60V_YF] 1.08
NTGYYYDLYGG [PTPN11_Y63_D61Y] 1.12
DYCDLYGGEKF [PTPN11_Y66_Y63C] 1.37
NTGDDYDLYGG [PTPN11_Y63_Y62D] 0.784
DDYDLYGGEKF [PTPN11_Y66_Y62D] 0.682
AALVQYYMEHH [PTPN11_Y80_E76A] 1.49
NTGGYYDLYGG [PTPN11_Y63_D61G] 0.912
QNTGDDYDLYG [PTPN11_Y62_Y62D] 0.544
NTGNYYDLYGG [PTPN11_Y63_D61N] 0.839
DYYDLYGGEKF [PTPN11_Y66] 1.59
FFFDLYGGEKF [PTPN11_Y66_D61Y_YF] 1.81
QNTGDDFDLFG [PTPN11_Y62_Y62D_YF] 0.763
QNTGVYFDLFG [PTPN11_Y62_D61V_YF] 1.6

Each binder was assayed against SHP2 C-SH2 domain wild-type in the same assay as above. Details: peptide library: pTyr-Var.

Enrichment score, inactive:
RTEAQYRFIYM [PTPN11_Y511_Q506R] 0.989
EPVSDYINASI [PTPN11_Y304_N308S] 0.818
ECKLRYSRKEG [PTPN11_Y263_L262R] 0.266
QTEAEYRFIFM [PTPN11_Y511_Q510E_YF] 0.498
GFFDLYGGEKF [PTPN11_Y66_D61G_YF] 1.25
QNTVDYFDLFG [PTPN11_Y62_G60V_YF] 0.93
NTGYYYDLYGG [PTPN11_Y63_D61Y] 1.77
DYCDLYGGEKF [PTPN11_Y66_Y63C] 1.31
NTGDDYDLYGG [PTPN11_Y63_Y62D] 0.609
DDYDLYGGEKF [PTPN11_Y66_Y62D] 0.567
AALVQYYMEHH [PTPN11_Y80_E76A] 1.51
NTGGYYDLYGG [PTPN11_Y63_D61G] 1.13
QNTGDDYDLYG [PTPN11_Y62_Y62D] 0.624
NTGNYYDLYGG [PTPN11_Y63_D61N] 0.695
DYYDLYGGEKF [PTPN11_Y66] 1.17
FFFDLYGGEKF [PTPN11_Y66_D61Y_YF] 1.48
QNTGDDFDLFG [PTPN11_Y62_Y62D_YF] 0.73
QNTGVYFDLFG [PTPN11_Y62_D61V_YF] 1.82

Each binder was assayed against SHP2 N-SH2 domain L43F in the same assay as above. Details: peptide library: pTyr-Var.

Enrichment score, inactive:
RTEAQYRFIYM [PTPN11_Y511_Q506R] 0.682
EPVSDYINASI [PTPN11_Y304_N308S] 0.639
ECKLRYSRKEG [PTPN11_Y263_L262R] 0.3
QTEAEYRFIFM [PTPN11_Y511_Q510E_YF] 0.561
GFFDLYGGEKF [PTPN11_Y66_D61G_YF] 1.4
QNTVDYFDLFG [PTPN11_Y62_G60V_YF] 1.15
NTGYYYDLYGG [PTPN11_Y63_D61Y] 1.18
DYCDLYGGEKF [PTPN11_Y66_Y63C] 1.16
NTGDDYDLYGG [PTPN11_Y63_Y62D] 0.651
DDYDLYGGEKF [PTPN11_Y66_Y62D] 0.601
AALVQYYMEHH [PTPN11_Y80_E76A] 2.03
NTGGYYDLYGG [PTPN11_Y63_D61G] 0.986
QNTGDDYDLYG [PTPN11_Y62_Y62D] 0.498
NTGNYYDLYGG [PTPN11_Y63_D61N] 0.635
DYYDLYGGEKF [PTPN11_Y66] 1.35
FFFDLYGGEKF [PTPN11_Y66_D61Y_YF] 2.03
QNTGDDFDLFG [PTPN11_Y62_Y62D_YF] 0.665
QNTGVYFDLFG [PTPN11_Y62_D61V_YF] 1.92

Each binder was assayed against SHP2 N-SH2 domain T42A in the same assay as above. Details: peptide library: pTyr-Var.

Enrichment score, inactive:
RTEAQYRFIYM [PTPN11_Y511_Q506R] 0.51
EPVSDYINASI [PTPN11_Y304_N308S] 0.715
ECKLRYSRKEG [PTPN11_Y263_L262R] 0.244
QTEAEYRFIFM [PTPN11_Y511_Q510E_YF] 0.516
GFFDLYGGEKF [PTPN11_Y66_D61G_YF] 1.23
QNTVDYFDLFG [PTPN11_Y62_G60V_YF] 0.913
NTGYYYDLYGG [PTPN11_Y63_D61Y] 1.13
DYCDLYGGEKF [PTPN11_Y66_Y63C] 0.71
NTGDDYDLYGG [PTPN11_Y63_Y62D] 0.597
DDYDLYGGEKF [PTPN11_Y66_Y62D] 0.544
AALVQYYMEHH [PTPN11_Y80_E76A] 1.17
NTGGYYDLYGG [PTPN11_Y63_D61G] 1.1
QNTGDDYDLYG [PTPN11_Y62_Y62D] 0.478
NTGNYYDLYGG [PTPN11_Y63_D61N] 0.62
DYYDLYGGEKF [PTPN11_Y66] 1.16
FFFDLYGGEKF [PTPN11_Y66_D61Y_YF] 1.77
QNTGDDFDLFG [PTPN11_Y62_Y62D_YF] 0.636
QNTGVYFDLFG [PTPN11_Y62_D61V_YF] 1.37

Each binder was assayed against SHP2 N-SH2 domain T52S in the same assay as above. Details: peptide library: pTyr-Var.

Enrichment score, inactive:
RTEAQYRFIYM [PTPN11_Y511_Q506R] 0.628
EPVSDYINASI [PTPN11_Y304_N308S] 1.57
ECKLRYSRKEG [PTPN11_Y263_L262R] 0.289
QTEAEYRFIFM [PTPN11_Y511_Q510E_YF] 0.45
GFFDLYGGEKF [PTPN11_Y66_D61G_YF] 0.942
QNTVDYFDLFG [PTPN11_Y62_G60V_YF] 1.21
NTGYYYDLYGG [PTPN11_Y63_D61Y] 1.2
DYCDLYGGEKF [PTPN11_Y66_Y63C] 1.21
NTGDDYDLYGG [PTPN11_Y63_Y62D] 0.716
DDYDLYGGEKF [PTPN11_Y66_Y62D] 0.593
AALVQYYMEHH [PTPN11_Y80_E76A] 1.79
NTGGYYDLYGG [PTPN11_Y63_D61G] 1.14
QNTGDDYDLYG [PTPN11_Y62_Y62D] 0.95
NTGNYYDLYGG [PTPN11_Y63_D61N] 0.73
DYYDLYGGEKF [PTPN11_Y66] 1.03
FFFDLYGGEKF [PTPN11_Y66_D61Y_YF] 1.71
QNTGDDFDLFG [PTPN11_Y62_Y62D_YF] 0.523
QNTGVYFDLFG [PTPN11_Y62_D61V_YF] 1.41

What follows are binders tested against SHP2 N-SH2 domain wild-type in the same assay as above. Details: peptide library: pTyr-Var.

Enrichment score, inactive:
RTEAQYRFIYM [PTPN11_Y511_Q506R] 1.33
EPVSDYINASI [PTPN11_Y304_N308S] 0.852
ECKLRYSRKEG [PTPN11_Y263_L262R] 0.373
QTEAEYRFIFM [PTPN11_Y511_Q510E_YF] 0.854
GFFDLYGGEKF [PTPN11_Y66_D61G_YF] 1.26
QNTVDYFDLFG [PTPN11_Y62_G60V_YF] 1.05
NTGYYYDLYGG [PTPN11_Y63_D61Y] 1.05
DYCDLYGGEKF [PTPN11_Y66_Y63C] 1.24
NTGDDYDLYGG [PTPN11_Y63_Y62D] 0.822
DDYDLYGGEKF [PTPN11_Y66_Y62D] 0.775
AALVQYYMEHH [PTPN11_Y80_E76A] 1.32
NTGGYYDLYGG [PTPN11_Y63_D61G] 1.19
QNTGDDYDLYG [PTPN11_Y62_Y62D] 0.5
NTGNYYDLYGG [PTPN11_Y63_D61N] 0.864
DYYDLYGGEKF [PTPN11_Y66] 1.47
FFFDLYGGEKF [PTPN11_Y66_D61Y_YF] 1.6
QNTGDDFDLFG [PTPN11_Y62_Y62D_YF] 0.838
QNTGVYFDLFG [PTPN11_Y62_D61V_YF] 1.44

— the supplement of paper PMC10369915
